Results published in the supplement of paper PMC8674133.
Numbering of substitutions follows the chain as printed. Recombinant human monoclonal antibodies (heavy:light variable regions). ELISA EC50 on the named antigen, from 10 µg/ml down; IC50 / IC90 against spike pseudovirus on 293T-ACE2 cells, 48 h; lower = stronger. Calls: IC50 above 1,000 ng/ml = non-neutralizing; EC50 above 2,000 ng/ml = non-binder. The source prints 1000 for neutralization that was not reached; it is given as >1000 ng/ml. A few antibodies were first reported in earlier work of the same group.

B1: C2396 (protein)
chain 1: EVQLVESGGGLIQPGGSLRLSCAASGFIVSTNYMIWVRQAPGKGLEWVSIIYSGGSTFYADSVMGRFTISRDNSKNTLYLQMNSLRADDTAVYYCARGYGDLYFDYWGQGALVTVSS
chain 2: DIQLTQSPSFLSASVGDRVTITCRASQGFGSYLAWYQQKPGKAPKLLIYSSSTSQSGVPSRFSGSGSGTEFTLTISSLQPEDSATYYCQHLTTFGQGTKVEIK
B2: C2402 (protein)
chain 1: QVQLVQSGAELKKPGASVKVSCKASGYLFTGHYIHWVRQAPGQGLEWVAWINPNSGATNFTQKFQGRVTMTRDTSITTVYMQLSRLKSDDSAVYYCARDLSWSRLSGGTDFWGQGTLVTVSS
chain 2: DIQMTQSPSTLSASVRDRVTITCRASQSISSWLAWYQQKPGKAPKLLIYEASSLESGVPSRFSGSGSGTEFTLTIGSLQPDDFATYYCQQYKSYPWTFGQGTKVEIK
B3: C2403 (protein)
chain 1: B2 chain 1
chain 2: DIQLTQSPSSLSASVGDRVTITCRASQSISTYLNWYQQKPGKAPKLLIYAASSLQSGVPSRFSGSGSGTDFTLTISSLQPEDFATYYCQQSYSTGGFFGPGTKVDIK
B4: C2404 (protein)
chain 1: EVQLVESGGGLIQPGGSLRLSCAASGITVSSNYMTWVRQAPGKGLEWVSVIYSGGSTFYADSVKGRFTISRDNSKNTLYLQMNSLRGEDTAVYYCARDAQIYGMDVWGQGTTVTVSS
chain 2: DIQMTQSPSTLSASVGDRVTITCRASQSISSWLAWYQQKPGKAPKLLIYKASTLESGVPSRFSGSGSGTEFTLTITSLQPDDFATYYCQQYNSFFGGGTKVEIK
B5: C2438 (protein)
chain 1: EVQLVESGGGFVQPGRSLRLSCAASGFTFDDFAMDWVRQAPGKGLEWVSGISWDSGSIGYADSVKGRFTISRDNAKNSLYLQMNSLRAEDTALYYCAKDILGNYYYYSMHVWGQGTTVTVSS
chain 2: QSALTQPASVSGSPGQSITISCTGTSSDVGGYNYVSWYQQHPGKAPKLMIFDVSYRPSGVSNRFSGSKSGNTASLTISGLQAEDEADYYCSSYTSSSTLGVFGGGTKLTVL
B6: C2443 (protein)
chain 1: QVQLQESGPGLVKPSETLSLTCTVSGGSVSSGSYYWSWIRQPPGKGLEWIGYIYYSGSTNYNPSLKSRVTMSIDTSKDQFSLKLSSVTAADMAVYYCAREGLRTLGPPQLPDYFGIDVWGQGTTVTVSS
chain 2: SYELTQPPSVSVSPGQTARITCSGGALPKQYAYWYQQKPGQAPVLVIYKNTERPSGIPERFSGSRSGTTVTLTISGVQAEDEADYYCQSADSSGIYIWVFGGGTKLTVL
B7: C2022 (protein)
chain 1: QVQLQESGPGLVRPSETLSLTCTVSGGSVFSTYSWLSWIRQPPGKGLEWIGDMYHTGTANYNPSLESRVTMSLDRSKNQMSLNLRSVTAADTAVYYCASGRDESKTGYWGQGTLVTVSS
chain 2: DIVMTQSPDSLAVSLGERATFNCKSSQTVLYSPNNKNYLAWFQQKPGQPPKLLIYWASLRESGVPDRFSGSGSATDFTLTISSLQAEDVAVYYCQQYYSPPFTFGQGTKLEIK
B8: C2047 (protein)
chain 1: EVQLVESGGGLVQPGRSLRLSCAASGFTFDDYGMHWVRQAPGKGLEWVSGISWNSGSIGYADSVKGRFTISRDNAKNSLYLQMNSLRAEDTALYYCAKERAGPQIKTYYYYGLDVWGQGTTVTVSS
chain 2: DIQLTQSPSSLSASVGDRVTITCRASQSISNYLNWYQQKPGKAPKLLIFAASSLQSGVPSRFSGSGSGTDFTLTISSLQPEDFATYYCQHTATFGQGTKLEIK
B9: C2048 (protein)
chain 1: QLQLQESGPGLVKPSETLSLTCTVSGGSISSSSYYWGWIRQPPGKGLEWIGSIYYTGSTYYNPSLKSRVTISVDTSKNQFSLKLSSVTAADTTIYYCARLVGGNGWYGRSLGDNRFDPWGQGTLVTVSS
chain 2: QSVLTQPPSVSGAPGQRVTISCTGSSSNIGAGYDVHWYQQLPGTAPKLLIYGNSNRPSGVPDRFSGSKSGTSASLAITGLQAEDEADYFCQSYDSSLSALQLVFGGGTKLTVL
B10: C2394 (protein)
chain 1: QVQLVQSGAEVKKPGSSVKISCKASGGIFSTYAFSWVRQAPGQGLEWMGGIIPIFGAADYAQKFQGRVTITADKLTTTAYMELSSLRSEDTAMYYCARDARGCFHDDVWGSFRDCYNGMAVWGQGTTVTVSS
chain 2: DIQLTQSPSSLSASVGDRVTITCRASQGINNSLAWYQQKPGKVPNLLIYAASTLQPGVPSRFSGSGSGTDFTLTISSLQPEDVATYYCQKGTFGPGTKVDIK
B11: C2398 (protein)
chain 1: QVQLQESGPGLVKPSQTLSLTCTVSGASISSGGDYWSWIRQHPGKGLEWIGYIHHSGSTYYNPSLKSRVTMSVDTSKNQFSLKLNSVTAADTAVYYCARVGDFDWFDTWGQGTLVTVSS
chain 2: EIVLTQSPATLSLSPGERATLSCRASQSVGSYLAWYQQKPGQAPRLLIYDASYRATGIPARFSGSGSGTDFTLTISSLESEDFAVYYCQQRFNWPPITFGQGTRLEIK
B12: C2476 (protein)
chain 1: EVQLVESGGGLVQPGGSLRLSCAASGFTFRTYDMHWVRQVAGKGLEWVSAIGTSGDTYYAASVKGRFTISRENAKNSLYLQMNSLRGDDTAVYYCARGADSSNLWYFDLWGRGTLVTVSS
chain 2: DIQLTQSPSSLSASVGDRVTITCRASQSIIRSLNWYQQKPGKAPKLLIYAASSLQSGVPSRFSGSGSGTDFTLTISSLQPEDFATYYCQQSYSMPTITFGQGTRLEIK
B13: C2477 (protein)
chain 1: QVQLVQSGAEVKKPGSSVKVSCKASGGTFSSYAINWVRQAPGQGLEWMGGIIPIFGPANYAQRFQGRVTITADESTSTAYMELSSLRSEDTAVYYCARDIEYSPLYGMDVWGQGTTVTVSS
chain 2: B12 chain 2 with I30S, S32Y, A50G, S93R, M94T, T96L, I97C, R104K
B14: C2400 (protein)
chain 1: QVQLVQSGAEVKKPGASVKVSCKTSGYTFTSYYIHWVRQAPGQGLEWMAMIDPSGGGRSNAQKFQGRVTMTKDTSTSTVYMELNSLKSEDTAVYYCARASWGSTLDYWGQGTLVTVSS
chain 2: DIQLTQSPSSLSASVGDRVTITCRASQSISSYLNWYQQKPGKAPNLLIYGASNLRSGVPSRFSGSGSGTDFTLTISSLQPEDFATYYCQQSYSTPPYTFGQGTKLEIK
B15: C2023 (protein)
chain 1: QLQLQESGPGLVKPSETLSLTCTVSGGSISSSSYYWGWIRQPPGKGLEWIGSIYYSGSTYYNPSLKSRVTISVDTSKNQFSLKLSSVTAADTAVYYCARQKWLRSDFDYWGQGTLVTVSS
chain 2: NFMLTQPHSVSESPGKTVTISCTGSSGSIASNYVQWYQQRPGSAPTTVIYEDNQRPSGVPDRFSGSIDSSSNSASLTISGLKTEDEADYYCQSYDSSNYYVFGTGTKVTVL
B16: C2401 (protein)
chain 1: EVQLLESGGGLVQPGGSLRLSCAASGFAFDTYAMTWVRQAPGKGLDWVSALSPSGGNKYYADSVKGRFTISRDNSKNTLYLQMHSLRAGDTAVYYCAKVWPRSSEGYFFDLWGQGTLVTVSS
chain 2: DIVMTQSPDSLAVSLGERATINCKSSQSVLYSSNNENFLAWYQQKPGQPPKLLIYWASTRESGVPDRFSGSGSGTDFTLTISSLQAEDVAVYYCQQYHSIPLTFGGGTKVEIK

What was measured:
[1] = molecular target: SARS-CoV-2 Wuhan-Hu-1 spike pseudovirus; assay: pseudovirus neutralization IC50; higher = weaker neutralization
Experimental: (§1)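 Single-round luciferase reporter pseudovirus mixed with antibody dilutions and put on 293T-ACE2 cells for 48 h; signal relative to no-antibody wells, four-parameter fit.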

[2] = molecular target: SARS-CoV-2 Wuhan-Hu-1 spike pseudovirus; assay: pseudovirus neutralization IC90; higher = weaker neutralization
Experimental: as §1

[3] = molecular target: SARS-CoV-2 Wuhan-Hu-1 spike receptor-binding domain; assay: ELISA binding EC50; higher = weaker binding; ELISA of recombinant human antibody on coated antigen, from 10 µg/ml in fourfold dilutions; four-parameter fit.

Row | Binder | pseudovirus neutralization IC50 [1] [µg/mL] | pseudovirus neutralization IC90 [2] [µg/mL] | ELISA binding EC50 [3] [µg/mL]
1 | B1 | 0.0107 | 0.0657 | 0.00177
2 | B2 | > 1 | > 1 | 0.0308
3 | B3 | 0.573 | > 1 | 0.00223
4 | B4 | 0.056 | > 1 | 0.003
5 | B5 | 0.0131 | 0.0973 | 0.00201
6 | B6 | > 1 | > 1 | 0.00298
7 | B7 | 0.0579 | 0.348 | 0.00213
8 | B8 | 0.0139 | 0.0752 | 0.00118
9 | B9 | 0.286 | > 1 | 0.00397
10 | B10 | 0.00284 | 0.0181 | 0.00195
11 | B11 | > 1 | > 1 | 0.00182
12 | B12 | > 1 | > 1 | 0.00189
13 | B13 | 0.268 | > 1 | 0.00164
14 | B14 | 0.00425 | 0.108 | 0.00245
15 | B15 | > 1 | > 1 | 0.00245
16 | B16 | 0.00306 | 0.0421 | 0.00246
